In assay [1] the target is T1, GARP-TGF-β complex (293-GARP/TGFβ stably transfected cells) (UniProt Q14392 20-662; P01137 30-390).
T1 construct: whole, on cells; Complex of GARP and (latent) TGF-β on the cell surface; also called 293-GARP/TGFβ cell; 293F-GAPR/TGFβ/αvβ6 cells
Description: FACS on 293-GARP/TGFβ cells.

In assay [2] the target is T2, human PD-L1 (human, UniProt Q9NZQ7). Description: cell-based or functional assay.
Assay [3] has as its target T2, human PD-L1. Kind of assay: FACS on MC38-hPD-L1 cells.
Assay [4] has as its target T1, GARP-TGF-β complex (293-GARP/TGFβ …). Kind of assay: cell-based or functional assay.
Assay [5] has as its target T3, GARP (CHO-K1-GARP cell line that overexpresses GARP) (UniProt Q14392 20-662, limits assumed).
T3 construct: whole, on cells; also called GARP protein
T3 sequence (looked up): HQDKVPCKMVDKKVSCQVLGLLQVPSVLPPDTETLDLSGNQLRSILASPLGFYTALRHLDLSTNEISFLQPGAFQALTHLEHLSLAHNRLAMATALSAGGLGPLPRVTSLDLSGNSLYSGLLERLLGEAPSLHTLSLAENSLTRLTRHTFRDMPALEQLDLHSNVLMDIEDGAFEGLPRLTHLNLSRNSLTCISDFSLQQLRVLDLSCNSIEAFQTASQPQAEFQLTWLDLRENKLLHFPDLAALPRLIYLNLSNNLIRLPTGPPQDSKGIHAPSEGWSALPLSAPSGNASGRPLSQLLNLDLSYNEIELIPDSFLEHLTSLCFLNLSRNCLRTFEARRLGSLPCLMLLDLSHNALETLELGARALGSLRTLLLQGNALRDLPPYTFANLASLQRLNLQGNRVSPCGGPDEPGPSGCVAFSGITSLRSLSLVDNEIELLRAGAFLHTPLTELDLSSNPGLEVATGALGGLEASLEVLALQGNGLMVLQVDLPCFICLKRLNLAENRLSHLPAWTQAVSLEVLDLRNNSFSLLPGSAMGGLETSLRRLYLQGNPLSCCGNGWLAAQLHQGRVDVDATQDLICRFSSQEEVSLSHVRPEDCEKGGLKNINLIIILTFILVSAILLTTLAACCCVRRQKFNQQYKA
Description: FACS on CHO-K1-GARP cells.

From patent US20240383974A1 (BETTA PHARMACEUTICALS, published 2024) come the findings set out here.

T2 sequence (Q9NZQ7 19-290): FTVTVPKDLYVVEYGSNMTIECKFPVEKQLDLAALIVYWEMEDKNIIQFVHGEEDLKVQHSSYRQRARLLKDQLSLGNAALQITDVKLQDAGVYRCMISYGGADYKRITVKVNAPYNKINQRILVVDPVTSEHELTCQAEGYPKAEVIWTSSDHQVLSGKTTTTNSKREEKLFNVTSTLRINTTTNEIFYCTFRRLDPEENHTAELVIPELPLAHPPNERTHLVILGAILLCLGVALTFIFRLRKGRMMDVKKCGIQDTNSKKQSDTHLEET

B1: b301-L-D2hu (bispecific antibody, human IgG1, kappa)
heavy: QVQLQESGPGLVKPSGTLSLTCAVSGFSLTTYGVTWVRQPPGKGLEWIGLIWGDGTTDYHSTFISRLTISKDKSKNQVSLKLSSVTAADTAVYYCASYYFAMHYWGQGTLVTVSS[letters of human IgG1 constant region omitted]
light: DIVMTQSPDSLAVSLGERATINCKSSQSLLNSRTQKNYLAWYQQKPGQSPKLLIYWASTRESGVPDRFSGSGSGTDFTLTISSLQAEDVAVYYCKQSYNLWTFGGGTKVEIKRTVAAPSVFIFPPSDEQLKSGTASVVCLLNNFYPREAKVQWKVDNALQSGNSQESVTEQDSKDSTYSLSSTLTLSKADYEKHKVYACEVTHQGLSSPVTKSFNRGECGGGGSGGGGSGGGGSGGGGSEVQLVESGGGLVQPGGSLRLSCAASGRDFLTYGMGWFRQAPGKGLEFVASINWSGSMTYYADSVKGRFTISRDNAKNSVYLQMNSLRAEDTAVYICAARRGAVTYASSNEYEHWGQGTQVTVSS
Turning to B1, the EC50 in assay [1] was 11 nM; with human PD-L1 [3], 0.52 nM. Also, the “IC50(nM), PD-1/PD-L1 NFAT-luciferase reporter (293T-hPD-L1 with Jurkat-PD1-CD3zeta-NFAT-Luc2 cells)” value in the assay with human PD-L1 [2] worked out at 10 nM. The “IC50(nM), TGFβ reporter gene blocking (293F-GAPR/TGFβ/αvβ6 cells with 293-SBE-Luciferase cells)” value in assay [4] stood at 8.4 nM.

B2: b301-L-Bhu (bispecific antibody, human IgG1, kappa)
heavy: B1 heavy
light: DIVMTQSPDSLAVSLGERATINCKSSQSLLNSRTQKNYLAWYQQKPGQSPKLLIYWASTRESGVPDRFSGSGSGTDFTLTISSLQAEDVAVYYCKQSYNLWTFGGGTKVEIKRTVAAPSVFIFPPSDEQLKSGTASVVCLLNNFYPREAKVQWKVDNALQSGNSQESVTEQDSKDSTYSLSSTLTLSKADYEKHKVYACEVTHQGLSSPVTKSFNRGECGGGGSGGGGSGGGGSGGGGSQVQLVESGGGVVQPGGSLRLSCAASGFTFSSYAMRWVRQAPGKGLEWVAGINTGSEIVVYANSVRGRFTISRDNSRDTLYLQMNSLRAEDTAVYYCATGLVSAEHDGIWGQGTQVTVSS
In turn, B2 came in with a concentration for a half-maximal effect (EC50) in assay [1] of 4.4 nM.

B3: b212-L-D2hu (bispecific antibody)
heavy: QVQLVQSGAEVKKPGSSVKVSCKASGYIFTSYWMHWVKQAPGQGLEWIGRIAPNSGGAHYHEKFKTKVTITADKSTSTAYMEFSSLRSEDTAVYYCARGNYGMDYWGQGTAVTVSS[letters of human IgG1 constant region omitted]
light: DIQMTQSPSSLSASVGDRVTITCRASQDISNYLNWYQQKPGGAPELLIYYTSTLHSGVPSRFSGSGSGTDYTLTISSLQPEDFATYFCQQVNTLPFTFGSGTKLEIKRTVAAPSVFIFPPSDEQLKSGTASVVCLLNNFYPREAKVQWKVDNALQSGNSQESVTEQDSKDSTYSLSSTLTLSKADYEKHKVYACEVTHQGLSSPVTKSFNRGECGGGGSGGGGSGGGGSGGGGSEVQLVESGGGLVQPGGSLRLSCAASGRDFLTYGMGWFRQAPGKGLEFVASINWSGSMTYYADSVKGRFTISRDNAKNSVYLQMNSLRAEDTAVYICAARRGAVTYASSNEYEHWGQGTQVTVSS
Consider B3, for which the EC50 in assay [1] stood at 7.7 nM; with human PD-L1 [3], 0.39 nM; in assay [5] it was 1.9 nM. Moreover, in the assay with human PD-L1 [2], the “IC50(nM), PD-1/PD-L1 NFAT-luciferase reporter (293T-hPD-L1 with Jurkat-PD1-CD3zeta-NFAT-Luc2 cells)” value came out at 8.2 nM.

B4: b212-L-Bhu (bispecific antibody)
heavy: B3 heavy
light: DIQMTQSPSSLSASVGDRVTITCRASQDISNYLNWYQQKPGGAPELLIYYTSTLHSGVPSRFSGSGSGTDYTLTISSLQPEDFATYFCQQVNTLPFTFGSGTKLEIKRTVAAPSVFIFPPSDEQLKSGTASVVCLLNNFYPREAKVQWKVDNALQSGNSQESVTEQDSKDSTYSLSSTLTLSKADYEKHKVYACEVTHQGLSSPVTKSFNRGECGGGGSGGGGSGGGGSGGGGSQVQLVESGGGVVQPGGSLRLSCAASGFTFSSYAMRWVRQAPGKGLEWVAGINTGSEIVVYANSVRGRFTISRDNSRDTLYLQMNSLRAEDTAVYYCATGLVSAEHDGIWGQGTQVTVSS
As to B4, the EC50 stood at 1.9 nM in assay [1], 0.59 nM in the assay with human PD-L1 [3] and 2 nM in assay [5].

B5: b301-H-D2hu (bispecific antibody, human IgG1, kappa)
heavy: QVQLQESGPGLVKPSGTLSLTCAVSGFSLTTYGVTWVRQPPGKGLEWIGLIWGDGTTDYHSTFISRLTISKDKSKNQVSLKLSSVTAADTAVYYCASYYFAMHYWGQGTLVTVSS[letters of human IgG1 constant region omitted]GGGGSGGGGSGGGGSGGGGSEVQLVESGGGLVQPGGSLRLSCAASGRDFLTYGMGWFRQAPGKGLEFVASINWSGSMTYYADSVKGRFTISRDNAKNSVYLQMNSLRAEDTAVYICAARRGAVTYASSNEYEHWGQGTQVTVSS
light: DIVMTQSPDSLAVSLGERATINCKSSQSLLNSRTQKNYLAWYQQKPGQSPKLLIYWASTRESGVPDRFSGSGSGTDFTLTISSLQAEDVAVYYCKQSYNLWTFGGGTKVEIKRTVAAPSVFIFPPSDEQLKSGTASVVCLLNNFYPREAKVQWKVDNALQSGNSQESVTEQDSKDSTYSLSSTLTLSKADYEKHKVYACEVTHQGLSSPVTKSFNRGEC
notes: also called b301-hu-H-D2hu
Turning to B5, the EC50 in assay [1] was 7.3 nM; with human PD-L1 [3], 0.34 nM. In the assay with human PD-L1 [2], the “IC50(nM), PD-1/PD-L1 NFAT-luciferase reporter (293T-hPD-L1 with Jurkat-PD1-CD3zeta-NFAT-Luc2 cells)” value stood at 11 nM. Moreover, the “IC50(nM), TGFβ reporter gene blocking (293F-GAPR/TGFβ/αvβ6 cells with 293-SBE-Luciferase cells)” value in assay [4] was 4.2 nM.

B6: b301-H-Bhu-D2hu (bispecific antibody, human IgG1, kappa)
heavy: QVQLQESGPGLVKPSGTLSLTCAVSGFSLTTYGVTWVRQPPGKGLEWIGLIWGDGTTDYHSTFISRLTISKDKSKNQVSLKLSSVTAADTAVYYCASYYFAMHYWGQGTLVTVSS[letters of human IgG1 constant region omitted]GGGGSGGGGSGGGGSGGGGSQVQLVESGGGVVQPGGSLRLSCAASGFTFSSYAMRWVRQAPGKGLEWVAGINTGSEIVVYANSVRGRFTISRDNSRDTLYLQMNSLRAEDTAVYYCATGLVSAEHDGIWGQGTQVTVSSGGGGSGGGGSGGGGSEVQLVESGGGLVQPGGSLRLSCAASGRDFLTYGMGWFRQAPGKGLEFVASINWSGSMTYYADSVKGRFTISRDNAKNSVYLQMNSLRAEDTAVYICAARRGAVTYASSNEYEHWGQGTQVTVSS
light: B5 light
In assay [1], B6 gave a concentration for a half-maximal effect (EC50) of 1.3 nM.

B7: b212-hu-H-D2hu (bispecific antibody, human IgG1, kappa)
heavy: QVQLVQSGAEVKKPGSSVKVSCKASGYIFTSYWMHWVKQAPGQGLEWIGRIAPNSGGAHYHEKFKTKVTITADKSTSTAYMEFSSLRSEDTAVYYCARGNYGMDYWGQGTAVTVSS[letters of human IgG1 constant region omitted]GGGGSGGGGSGGGGSGGGGSEVQLVESGGGLVQPGGSLRLSCAASGRDFLTYGMGWFRQAPGKGLEFVASINWSGSMTYYADSVKGRFTISRDNAKNSVYLQMNSLRAEDTAVYICAARRGAVTYASSNEYEHWGQGTQVTVSS
light: DIQMTQSPSSLSASVGDRVTITCRASQDISNYLNWYQQKPGGAPELLIYYTSTLHSGVPSRFSGSGSGTDYTLTISSLQPEDFATYFCQQVNTLPFTFGSGTKLEIKRTVAAPSVFIFPPSDEQLKSGTASVVCLLNNFYPREAKVQWKVDNALQSGNSQESVTEQDSKDSTYSLSSTLTLSKADYEKHKVYACEVTHQGLSSPVTKSFNRGEC
In the case of B7, the EC50 turned out to be 7.7 nM in assay [1], 0.46 nM in the assay with human PD-L1 [3] and 2.2 nM in assay [5]. In addition, in the assay with human PD-L1 [2], the “IC50(nM), PD-1/PD-L1 NFAT-luciferase reporter (293T-hPD-L1 with Jurkat-PD1-CD3zeta-NFAT-Luc2 cells)” value turned out to be 8.7 nM. Also, the “IC50(nM), TGFβ reporter gene blocking (293F-GAPR/TGFβ/αvβ6 cells with 293-SBE-Luciferase cells)” value in assay [4] amounted to 0.38 nM.

For orientation: EC50 means the concentration at which the effect is half-maximal. Low values mean an effect from little substance, high ones a need for much substance.
